The results in this text go back to the supplement of paper PMC11417369.

Some of the results follow.

This assay concerns PfHDP1 homeodomain (GST-tagged). Description: gcPBM binding intensity (ln(normalized median fluorescence intensity)); higher = stronger DNA binding. The method, boiled down:
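An Agilent 4 × 180k array of primer-extended double-stranded 36-bp intergenic genomic probes, with negative controls, was incubated for 1 h with GST-tagged P. falciparum DNA-binding domains expressed in E. coli. Alexa488 anti-GST antibody detected bound protein, scanned at 488 nm. Binding intensity is the highest Masliner-normalised natural-log median intensity across replicate spots of either probe orientation.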
As to “ACACAAAAAATTAAGTGTACTCATCAAGAAAAAAAA [XGTACX_site3456]”, the “gcPBM binding intensity (ln)” value worked out at 6.25.
With “ATAAAATACCCTGATCTATTACATATTATATTCTGC [GTGCAC_negctrl_site311]”, the “gcPBM binding intensity (ln)” value is 6.3.
The figure for “ATAGGAAAAAGTATTGGTACACATACATATACGTTA [XGTACX_site5819]” is 6.31.
For “TTATATGTTTTGTGTACACAATTTATTAAATTAATA [CACACA_site5645]”, the “gcPBM binding intensity (ln)” value came to 8.03.
On to “TACATATTTTTCTTTTCACACATGGAAAAAAAAGGT [CACACA_site5146]”, for which the “gcPBM binding intensity (ln)” value turned out to be 6.41.
Regarding “TATTTTTTTTTTCACTGTACATACAACAACAAATAT [XGTACX_site8835]”, the “gcPBM binding intensity (ln)” value is 7.04.
Consider “CCCTTAATTTAAAACACACAAACAAATAAGTTAGTT [CACACA_site3793]”, for which the “gcPBM binding intensity (ln)” value was 6.39.
Consider “AATATATTTATTATAACACACACATATATATATTAT [CACACA_site8264]”, for which the “gcPBM binding intensity (ln)” value stood at 6.6.
For the sequence “ATATATATATATATATATATATATATATATAAGTGG [XGTACX_negctrl_site90]”, the “gcPBM binding intensity (ln)” value is 9.25.
Consider “TATTAATTCATTTTTTTTTTTTTTTTTTTTTTTTTT [CACACA_negctrl_site1215]”, for which the “gcPBM binding intensity (ln)” value is 7.1.
As to “GATTTAATAGATACGAGTACAGAAATTGTATACATA [XGTACX_site7563]”, the “gcPBM binding intensity (ln)” value is 6.71.
The value for “TTCATATTTCATATATGTACTTATGTTCAATATAGT [XGTACX_site3811]” was 6.18; that for “TTTTTTATGTTCAATTGTACATATACATATATATAT [XGTACX_site6013]” was 8.1.
With “AAAATAAGCCATATACGTACATACATATATAAATAT [XGTACX_site4197]”, the “gcPBM binding intensity (ln)” value came out at 6.4.
“CAAACAATTAAACAAACACACATATACATGTATATA [CACACA_site2060]”: the “gcPBM binding intensity (ln)” value stood at 6.54.
As for “TAATTACACTTTAAAAGTACATATATAATAACATTA [XGTACX_site379]”, the “gcPBM binding intensity (ln)” value turned out to be 6.35.
“TAATTTTCATGTTCATGTACTTAAATATAAGGTAAA [XGTACX_site3284]”: the “gcPBM binding intensity (ln)” value worked out at 6.46.
For the sequence “ATTCATAACAAAAAAAGTACTCAAAATAATAATAAA [XGTACX_site6079]”, the “gcPBM binding intensity (ln)” value was 6.53.
Take “TGCCTTATTAAAAGAATTACACATATTTAATCGAAA [GTGCAC_negctrl_site153]”: the “gcPBM binding intensity (ln)” value was found to be 5.95.
Turning to “AAAAAAAAGGAAATAACACACATGTATATATTTATA [CACACA_site1606]”, the “gcPBM binding intensity (ln)” value turned out to be 6.3.
Regarding “CACCATGTTAACAATACATGCATCACTATATAAATG [TGCATGCA_site36]”, the “gcPBM binding intensity (ln)” value amounted to 6.86.
Turning to “AAATATATTTTTAATAGTACAATATGAAAATTTCAT [XGTACX_site2562]”, the “gcPBM binding intensity (ln)” value is 6.41.
In the case of AGTAATTATTTTAGAGTGCATAGTTTTTTAATAAAT, the “gcPBM binding intensity (ln)” value turned out to be 7.44.
As for “TTTTTTTTTTTTTTTTGTACTCATACATACTATTAT [XGTACX_site989]”, the “gcPBM binding intensity (ln)” value was found to be 6.51.
With “GTACACATATATATATATATATATATATATATATAT [CACACA_negctrl_site800]”, the “gcPBM binding intensity (ln)” value came out at 9.49.
Regarding “TATGTCCATATTTCCACACACATATTATTTTTATAT [CACACA_site3798]”, the “gcPBM binding intensity (ln)” value was 6.94.
As to “ATAAAAAAATAAATAACACACAAAATTACACGAAAA [CACACA_site3620]”, the “gcPBM binding intensity (ln)” value turned out to be 6.92.
Regarding “TATTAAAAAATTATATGTACACATTTGTTATATACA [XGTACX_site2232]”, the “gcPBM binding intensity (ln)” value turned out to be 6.33.
Turning to “TTCTTTATATATGTTCGTACATATTATTATAATACA [XGTACX_site1549]”, the “gcPBM binding intensity (ln)” value is 7.07.
Turning to “AATTAAAGGAATTACAACTTTGCAAGCGCAACATAA [CACACA_negctrl_site1411]”, the “gcPBM binding intensity (ln)” value came to 6.78.
On to “ATTTCTTCTTTTTTTGTGAAACTGGAATATATATAT [XGTACX_negctrl_site527]”, for which the “gcPBM binding intensity (ln)” value was found to be 7.42.
Turning to “TATATATATTATTATGCATGTAATAAAACAAATAAT [TGCATGCA_site625]”, the “gcPBM binding intensity (ln)” value stood at 6.83.
As to “ACGTTACATACATATACACACACATATATATATATA [CACACA_site8203]”, the “gcPBM binding intensity (ln)” value stood at 9.27.
As to GATGTTTCTATTTTAGTGCATTTTAAATAAATAAAT, the “gcPBM binding intensity (ln)” value was found to be 9.22.
The figure for “GGTGGTGGTGGGTGGGTGCTTCTATTATTATATTAT [GTGCAC_site9391]” is 7.17; for “ATATATATTTTAATAACACACATATATTATATTATA [CACACA_site4387]” it is 6.42.
Take “CTTAGGTGTTCATAGAGTACAAATAAAAAAATAAGA [XGTACX_site2294]”: the “gcPBM binding intensity (ln)” value was 6.58.
The value for “TCATTCTAAATATAAACACACATAAATAAATACATT [CACACA_site5788]” was 6.57; that for “TTTTTATTATTTTAAAGTACTCTTTAGTAATTCCCT [XGTACX_site5863]” was 6.13; that for “AAAAAACATACATACACACACATAAATATTTATATT [CACACA_site7300]” was 6.79.
Consider “CACAGATAAATTAACACACACACACCGATATATATA [CACACA_site6049]”, for which the “gcPBM binding intensity (ln)” value was 7.
Consider “AATATTTCTTTAATTTGTACATATAAGGGAAAATAA [XGTACX_site6221]”, for which the “gcPBM binding intensity (ln)” value was determined as 6.58.
On to “TTTTATTAATATTGCATGCACACTATATAATAATTG [CACACA_site1049]”, for which the “gcPBM binding intensity (ln)” value is 9.
Turning to “CGGAAAAATTAAAGCACACAAAAAAAAATAAAAAAA [CACACA_site1133]”, the “gcPBM binding intensity (ln)” value stood at 6.31.
The value for “ATATATATTTTTATAACACACAATGATGTACATTAC [CACACA_site1076]” was 6.7.
